# Results taken from the RNAGym collection of RNA variant scans (doi:10.7554/elife.90254).
# Read counts are not given, so values of variants with three or more changes are uncertain.
# B1: LINE1-mini (parent)
# chain: GGCAGAGCUCAACACAGCGUGGCAAAGUGGCUGUGGCUAGACUGCC
# Variants of: B1
# Test: self-cleavage, relative activity (ratio to wild type); higher = more cleavage; in vitro, sequencing; the parent is a self-cleaving ribozyme
row,Variant,self-cleavage
1,G5U A6G C42A,0.08
2,A6U G22C G29A,1.25
3,G1C C18U C31U A41G,0.01
4,C23A G27A C42A,0.27
5,G33C U38G A41C,0
6,C8U A12U C15A G27U A39C C42U,0.19
7,U9C G19C C23G,0.01
8,G7A G40A C45G,0.05
9,G17C G36U A39C,0.03
10,G5C C23U C45A,0.14
11,C3G C15U C23A G29U A39U C45U,0.07
12,G2C G21U G27C G40C,0.04
13,G27A G29U U32A,0.12
14,C3U C8G U20G,0.15
15,G1C C8A C18U U20A,0.02
16,U9A C10G A16U,0.01
17,C13G A26G A39C,0.06
18,C10U A14C A26C G30C,0.03
19,A11G G27A U43A,0.02
20,G1U C3A G7C G19U A26U,0.3
21,G7A U9A C37U A41G,0.06
22,G1C A16G A24U,0.16
23,C10G G19C G22U,0.12
24,G7A G17C C23G G35C G40U,0.19

row,Variant,self-cleavage
1,A11U U20C G29A C31G G44U,0.02
2,G5U C10G C15G G21U A25G U32C G36C,0.02
3,U38C G40U A41C,0.46
4,A6C G36A A41G,0.78
5,A4C U34G G35A,0.03
6,A6U C10A G30A,0.16
7,A6G A25U G29C U32A G35A C46A,0.05
8,A4U G27C G36U,0.05
9,G7U G17A G22U G27U G29C C46A,0.07
10,C10U C13U U38A,0.02
11,G1U C18G G29A C37G,0.01
12,A11G A14C G17A G22U U38G,0.02
13,A12G C15A U20A A25C,0
14,C10A A14C C15U A16U U28C,0.04
15,A6G U20A A41G,0.11
16,C18A A25C G44A,0.06
17,G2A U9C C10G C23U U28C,0.05
18,G5A U32C G40A,0.04
19,G5U G29A G33U U34G,0.04
20,A25G A26G C45U C46U,0.05
21,G7A C13G G36A,0.38
22,A16U G33A C37A C46G,0.05
23,G5A A16U C23G G36C,0.04
24,A4C G33C C37U,0.07

row,Variant,self-cleavage
1,C3U G22A C46U,0.07
2,C8U C10A G33U,0.08
3,G1A A24G U38A,0.06
4,G2C U20C C42A,0.31
5,A16U C23U G36C,0.03
6,G5U C13A G21U A26U,0.17
7,C13G A14U C18A G36C,0.02
8,A24C A41C U43A,0.02
9,G2U C13A C45U,0.01
10,G1C G30C G40C,0.05
11,C10U U28C G44C,0.03
12,G2U A16U G17U U38A C42A,0.01
13,C13U G27U U38G,0.01
14,C3A G36C U43G G44C,0.4
15,C8U U9C G27U,0.07
16,C3G U28A G33U,0.07
17,C3A C13G G19U,0.21
18,G1A C8G C15U,0.43
19,G22U U34A A41U,0.04
20,A12C G22U G35U C45U,0.02
21,C3A A11C G21U G27A G33U,0.02
22,C18U A25U U28G C31A G36U C42U,0.01
23,C3G C23U A39G,0.37
24,C8U G19A G27U,0.77

row,Variant,self-cleavage
1,C23A G29C G35C,0.08
2,G2C G5C U9G C37A,0.02
3,C15G A25U U34A,0.04
4,A14C A16G G44A C45U,0.08
5,G22U C23G C37G,0.04
6,C23A G35C C45U,0.05
7,C10U G29A G36U,0.02
8,G2U G33A U43A C45U,0.04
9,A4G A11G G27C U43C,0.01
10,G7U A11C C13G A14U,0.04
11,C10U A16G U20C,0.13
12,G5U G22C U32A,0
13,G2C A4C G7A C8U C18A,0.23
14,A12C A16G A26C,0.01
15,C23U A24G C31A U32G,0.02
16,G1U G5U C15A G29U U43A,0.07
17,C13A C15G U28G,0.11
18,G1U C10A G17C G19A,0.03
19,C3U C10U C42G,0.02
20,G1U C8U U38C,0.01
21,G5C G19U U32C G44U C46A,0.14
22,G21A U34C A41U C42A G44C,0.05
23,C8A C10G C18A G40U G44U C46U,0.01
24,A24U A25C C37G,0.07

row,Variant,self-cleavage
1,G5U A6C C10A A16G U28C C37A,0
2,C3U U32C U34G,0.02
3,G1A A11U A41G C45A,0
4,C10A C15A A16U U28C,0.05
5,C3U A4U G7A G27U G33C,0.08
6,G29C G36A A41G,0.1
7,G5U C10A U20C A26C C42U,0
8,G5A A16C C18G G36C,0.01
9,G5U C8G C18A G21U C42A,0.13
10,G21U U28A G44A,0.04
11,C13U C18G G27A C31U,0.01
12,G5U A14G G17A U32G C37U,0.05
13,U20A A24U A39G,0.05
14,C8U G30A U32G A41G,0.06
15,C15G G36C U43A G44C,0.01
16,C8A C15A G19C C45A,0.47
17,C3A C13G G35A C37U A41C C46G,0.11
18,A4U G5U G29C G40C,0.05
19,G29A G35U A41C,0.03
20,G17U A24G G33C C42G C46U,0
21,G17U U20C U32G,0.03
22,G2C C15A G19C A25G C31U G40U,0.14
23,G2C G40U C46U,0.29
24,G2C G19U C23A A26U G30U,0.05

row,Variant,self-cleavage
1,A16U C18G G35U C46G,0.01
2,G5U A6U U20G G33A U34A A41G G44U C45G,0
3,G19A G40U C46U,0.13
4,A6U G7C A12U A24U A26U C31A,0.02
5,G7U A24C G30A A41C,0.15
6,G7U C8G C23A C31G A41U,0.04
7,A4U G5U C37G,0.03
8,G19A U34G U43C,0.09
9,G7C G22A G27A A39U,0.04
10,G2C U9C C15G U20G G27U,0.07
11,A4G C8U C15U G19A G30A,0.18
12,A11U A24U G33U U38G,0.02
13,G17C A24G G30A,0.09
14,C3A A24U A26C G35U C37A,0.14
15,A6U G19A A24C C45A,0.09
16,G5A C18A G30U,0.05
17,U28C G35A A39G,0.15
18,G5U C23G G35U,0.03
19,C10U A14U U20A,0.21
20,A4C C15G C42G,0.01
21,U28C G30U C45U,1.59
22,A16C G40C U43A,0.03
23,U20C G30U U32C U34A,0.02
24,C18U A24C A25U G40A,0.04

row,Variant,self-cleavage
1,G19U A26C A39C,0.04
2,G5U C31G G44U,0.03
3,A4C A6C A39U,0.02
4,G2C C3U G5A A24C C37G G44U,0.07
5,A4U G21C A26U,0.09
6,C13G C18A G30U,0.03
7,U20A C23G G29U,0.43
8,C8A C42G U43G,0.16
9,C10A G29C U34C,0.02
10,C8G C10U G17A G19U U20A C31G C37U C45U C46U,0
11,G1U A11G A14U C31U,0.01
12,G1C A16U G21U,0
13,A26C G29A U34G G36A G44C,0.5
14,A14C C18A G40A C45G,0.25
15,A14C G17A G19A G33U G35C,0.04
16,A14C G22A A26C,0.03
17,A6C C15U C18A G29U,0.11
18,G1A G5U A24C U38A,0.02
19,G5U G29A U34A G40U C42G,0.06
20,C23G C37G C42A,0.01
21,C10G A26G U43C,0.01
22,G5U A14U A26U C37G G40A,0.03
23,G1A C10U C31A G36U G44A,0.04
